Source: the antibiotic and cytotoxicity screens of Wong et al. (2023)
The list shows a part of the results.

How the values were obtained:
HSkMC = human skeletal muscle cells; test: cytotoxicity call (relative viability < 0.9); settings: 10 µM
HepG2 = test: cytotoxicity call (relative viability < 0.9); settings: 10 µM
S. aureus RN4220 = test: growth inhibition call (relative growth <= 0.2); settings: 50 µM

| SMILES | cytotoxicity call (HSkMC) | cytotoxicity call (HepG2) | growth inhibition call (S. aureus RN4220) |
| --- | --- | --- | --- |
| C[C@H](CO)N1C[C@H](C)[C@@H](CN(C)S(=O)(=O)c2cccs2)Oc2ccc(NS(C)(=O)=O)cc2C1=O | inactive | inactive | inactive |
| Cc1ccc(S(=O)(=O)N(C)C[C@H]2OCCCC[C@H](C)Oc3ccc(NC(=O)Nc4ccc5c(c4)OCO5)cc3C(=O)N([C@@H](C)CO)C[C@@H]2C)cc1 | inactive | inactive | inactive |
| CCOC(=O)C1CCN(C)CC1 | inactive | inactive | inactive |
| C[C@H]1CCCCO[C@H](CN(C)C(=O)CCC(F)(F)F)[C@@H](C)CN([C@@H](C)CO)C(=O)c2cc(NC(=O)CCC(F)(F)F)ccc2O1 | inactive | inactive | inactive |
| O=C(CCCCCC(=O)N/N=C/[C@@H](O)[C@H](O)[C@H](O)CO)NO | inactive | inactive | inactive |
| COc1ccc(NC(=O)Nc2ccc3c(c2)CC(=O)N([C@H](C)CO)C[C@@H](C)[C@H](CN(C)Cc2ccc(Oc4ccccc4)cc2)O3)cc1 | inactive | active | inactive |
| O.OCC(O)C(O)C(OC1OC(CO)C(O)C(O)C1O)C(O)CO (configuration not stated) | inactive | inactive | inactive |
| C[C@@H]1CCCCO[C@H](CN(C)Cc2ccncc2)[C@@H](C)CN([C@@H](C)CO)C(=O)c2cc(NC(=O)CCC(F)(F)F)ccc2O1 | inactive | inactive | inactive |
| O=C(C[C@H]1CC[C@@H]2[C@H](COC[C@@H](O)CN2Cc2cc(F)ccc2F)O1)N[C@@H]1CCN(Cc2ccccc2)C1 | inactive | active | inactive |
| C[C@H]1CN([C@@H](C)CO)C(=O)Cc2cc(NC(=O)Cc3cn(C)c4ccccc34)ccc2O[C@H]1CN(C)Cc1ccc(-c2ccccc2)cc1 | inactive | inactive | inactive |
| COCC(=O)N1C[C@H](C)[C@H](OC)CN(C)C(=O)c2ccc(NC(=O)c3ccc(F)cc3)cc2OC[C@@H]1C | inactive | inactive | inactive |
| O=C(O)CSCC(=O)N[C@H]1CCSC1=O | inactive | inactive | inactive |
| C[C@H]1CN([C@@H](C)CO)C(=O)c2cccc(NS(=O)(=O)c3cn(C)cn3)c2O[C@H]1CN(C)S(=O)(=O)c1cn(C)cn1 | inactive | inactive | inactive |
| CC(C)CC#Cc1ccc2c(c1)O[C@H](CN(C)C(=O)c1cnccn1)[C@H](C)CN([C@@H](C)CO)S2(=O)=O | inactive | inactive | inactive |
| Cc1ccc(S(=O)(=O)N(C)C[C@H]2OCCCC[C@@H](C)Oc3ccc(NS(=O)(=O)c4ccc(Cl)cc4)cc3C(=O)N([C@@H](C)CO)C[C@H]2C)cc1 | inactive | inactive | inactive |
| C[C@@H]1CCCCO[C@@H](CN(C)S(=O)(=O)c2cn(C)cn2)[C@H](C)CN([C@@H](C)CO)C(=O)c2cc(NC(=O)CCCN(C)C)ccc2O1 | inactive | inactive | inactive |
| CC(C)NC(=O)Nc1ccc2c(c1)C(=O)N([C@H](C)CO)C[C@@H](C)[C@@H](CN(C)Cc1ccc(Oc3ccccc3)cc1)O2 | inactive | inactive | inactive |
| C[C@@H]1CN([C@H](C)CO)C(=O)Cc2cc(NC(=O)C3CCCCC3)ccc2O[C@H]1CN(C)Cc1ccc(C(=O)Nc2ccccc2N)cc1 | inactive | inactive | inactive |
| C[C@@H]1CCCCO[C@@H](CN(C)C(=O)Cc2ccccc2)[C@H](C)CN([C@H](C)CO)C(=O)c2cc(NC(=O)C3CCCCC3)ccc2O1 | inactive | inactive | inactive |
| C[C@H]1CN([C@@H](C)CO)S(=O)(=O)c2ccc(Br)cc2O[C@@H]1CN(C)C(=O)C1CCCCC1 | inactive | inactive | inactive |
| C[C@H]1CCCCO[C@@H](CN(C)Cc2ccccc2)[C@@H](C)CN([C@@H](C)CO)C(=O)c2cc(NC(=O)c3ccncc3)ccc2O1 | inactive | inactive | inactive |
| C[C@@H]1CCCCO[C@@H](CN(C)S(=O)(=O)c2cccs2)[C@H](C)CN([C@@H](C)CO)C(=O)c2cc(NC(=O)Nc3ccc(C(F)(F)F)cc3)ccc2O1 | inactive | inactive | inactive |
| C[C@@H]1CN([C@@H](C)CO)C(=O)c2cccc(NC(=O)Nc3ccc(C(F)(F)F)cc3)c2O[C@H]1CN(C)C(=O)Nc1cccc2ccccc12 | inactive | active | inactive |
| C[C@@H]1CN([C@@H](C)CO)C(=O)Cc2cc(NC(=O)C3CC3)ccc2O[C@@H]1CN(C)S(=O)(=O)c1cn(C)cn1 | inactive | inactive | inactive |
